Test results reported in PubChem BioAssay (NCATS).
Values joined by “and” are separate entries in the source; they are usually repeats but may differ in a detail not shown here. Equal values may be shown once. The shares of active, inactive and inconclusive entries below differ from those in the screen. Where the call is inconclusive, the potency comes from a doubtful curve fit. Active and inactive are the calls of the source. Calls follow the shape of the dose curve; as a rule, active = well fitted cell-killing curve with a large enough effect; inconclusive = small, poorly fitted or top-dose-only effect, or effect the other way; inactive = no such curve, though single readings can be large or run the other way.

Assay: Viability qHTS for spleen associated tyrosine kinase inhibitor (SYKi) naive MV4-11 cells (AID 1963823); also: nearly all actives have a fitted effect of over 40% in size
Settings: MV4-11 AML viability, CellTiter-Glo luminescence, 72 h; viability (% of control): at 45 µM (top of the series)
Method in brief: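 SYK inhibitor-naive MV4-11 cells, 500 per well, exposed to compounds for 72 hr at 37 C, 5% CO2. Viability read as CellTiter-Glo luminescence after 10 min at room temperature.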
Potency is read from the fitted curve at half-maximal effect; tags tell the direction and shape of the fitted curve.

For `C1CCC[C@H]2CCCN3CC[C@@H](CCCCCC[C@@H]4CCCN5CC[C@@H](CC1)O[C@@H]45)O[C@@H]23`, which viability (% of control) is on record?
Its viability (% of control) is inactive: 90.7% [at 0.177 µM].

With `CC(=O)CC(=O)Nc1ccc(Cl)c(C(F)(F)F)c1` as the compound, how does the Potency read?
Its Potency is active: 9.2 µM.

Which Potency does the source give for `O=C1/C(=C/c2ccc(O)c(O)c2)Oc2ccccc21` here?
Its Potency is inconclusive: 0.411 µM [cytotoxic, full curve].

Which Potency does the source give for `COc1c(-c2ccc3cc(NS(C)(=O)=O)ccc3c2)cc(-n2ccc(=O)[nH]c2=O)cc1C(C)(C)C` here?
The Potency was inconclusive: 20.6 µM [cytotoxic, single point].

Which Potency does the source give for `Cn1c(=O)c2c(ncn2CC(=O)O)n(C)c1=O` here?
The Potency was inconclusive: 0.841 µM [rising, full curve, poor fit].

With `CN(C)CCNC(=O)NC[C@H]1CC[C@@H]2[C@H](O1)c1cc(C(F)(F)F)ccc1N[C@H]2c1ccccc1` as the compound, how does the Potency read?
The Potency was active: 0.148 µM.

Which Potency does the source give for `COC1CC(=O)C23C(=O)NC(CC(C)C)C2C(C)C(C)=CC3/C=C(\C)CCC1O` (stereo not given) here?
The Potency was inconclusive: 10 µM [cytotoxic, partial curve].

Which “viability (% of control)” value does the source give for `CC1=CC(=O)CC(C)(C)C1/C=C/C(C)OC1OC(COC2OCC(O)C(O)C2O)C(O)C(O)C1O` (stereo not given) here?
The value was inactive: 57.1% [at 17.3 µM].

Which Potency does the source give for `C/C=C/CCC1Cc2cc(O)c(CCCC)c(O)c2C(=O)O1` (stereo not given) here?
The Potency was inconclusive: 29.1 µM [cytotoxic, single point].

With `C[C@@H]1C[C@@H](O)[C@@]23CO[C@]2(CO)CCC[C@@H]3[C@@]12C[C@@H](c1ccoc1)OC2=O` as the compound, how does the Potency read?
The Potency was inconclusive: 5.7 µM [cytotoxic, partial curve, poor fit].

For `NC[C@@H]1O[C@@H](O[C@@H]2[C@@H](O[C@@H]3O[C@H](CO)[C@@H](O)[C@H]3O)[C@H](O)[C@@H](N)C[C@H]2N)[C@@H](N)[C@H](O)[C@H]1O`, which viability (% of control) is on record?
The viability (% of control) was inactive: 88.1% [at 9.25 µM].

With `O=C(O)C[C@H]1CCC(=O)[C@@H]1C/C=C\CCO` as the compound, how does the “viability (% of control)” value read?
Its value is inactive: 103%.

With `CC1OC2OC(=O)C3(C)CC4C5(CO5)C5=CC(=O)OC(C)(C)C5=CC(=O)C4(C)C(C1=O)C23` (stereo not given) as the compound, how does the Potency read?
Its Potency is inconclusive: 7.09 µM [cytotoxic, partial curve].

For `C1=CC2C3C=CC(C3)C2C1` (stereo not given), which Potency is on record?
Its Potency is inconclusive: 0.0019 µM [rising, full curve].

With `Nc1ccc(O)c([N+](=O)[O-])c1` as the compound, how does the “viability (% of control)” value read?
Its value is inactive: 72.9% [at 91.9 µM].

With `CC(=O)OCC(=O)[C@@]12O[C@@H]1C[C@H]1[C@@H]3CC=C4C[C@@H](O)CC[C@]4(C)[C@H]3CC[C@@]12C` as the compound, how does the Potency read?
Its Potency is inconclusive: 13 µM [cytotoxic, partial curve].

With `COC1CC(O[C@H]2CC[C@]3(C)C4CC[C@]5(C)C(C6=CC(=O)OC6)=CCC56OC46CC[C@@H]3C2)OC(C)C1O[C@@H]1O[C@H](CO[C@@H]2O[C@H](CO)[C@@H](O)[C@H](O)[C@H]2O)[C@@H](O)[C@H](O)[C@H]1O` (stereo not given in full) as the compound, how does the Potency read?
Its Potency is active: 1.55 µM.

For `Cn1c(CO)c(-c2ccccc2)c2cc([N+](=O)[O-])ccc21`, which Potency is on record?
The Potency was inconclusive: 16.4 µM [cytotoxic, partial curve].

For `O=C(/C=C/c1ccc(O)cc1)OC1[C@H](O)CC(O)(C(=O)O)C[C@H]1O` (stereo not given in full), which “viability (% of control)” value is on record?
The value was inactive: 63.1%.

For `C(#Cc1cccc(CN2CCOCC2)c1)CCN1CCCCC1`, which “viability (% of control)” value is on record?
The value was inactive: 60.7%.

Which “viability (% of control)” value does the source give for `COc1c2c(c(C)c3c1C(=O)OC3)O[C@@]1(C)CCC3(C(C)(C)O)OC(=O)CC[C@]3(C)[C@H]1C2` (stereo not given in full) here?
Its value is inactive: 46.2% [at 17.3 µM].

Which Potency does the source give for `O=C(c1ccc(Cl)c([N+](=O)[O-])c1)N1CCN(c2ccccc2F)CC1` here?
Its Potency is active: 23.1 µM.

For `CCCN1CCC=C(c2cc(-c3ccc(C)cc3)no2)C1`, which Potency is on record?
Its Potency is inconclusive: 32.6 µM [cytotoxic, single point].

With `COc1ccc(C2(CNC(=O)[C@](C)(Cc3c[nH]c4ccccc34)NC(=O)Nc3ccc([N+](=O)[O-])cc3)CCCCC2)nc1` as the compound, how does the Potency read?
Its Potency is inconclusive: 29.1 µM [cytotoxic, single point].

With `OCC1=CC[C@@H]2C=CO[C@@H](O[C@@H]3O[C@H](CO)[C@@H](O)[C@H](O)[C@H]3O)[C@H]12` as the compound, how does the “viability (% of control)” value read?
The value was inactive: 85.7%.

For `COc1cc(/C=C/C(=O)O[C@H]2[C@H](O)[C@@H](CO)O[C@@]2(CO)O[C@H]2O[C@H](COC(=O)c3ccc(O)cc3)[C@@H](O)[C@H](O)[C@H]2O)cc(OC)c1OC`, which “viability (% of control)” value is on record?
Its value is inactive: 77% [at 17.3 µM].

For `C[C@H]1O[C@@H](O[C@H]2CC[C@@]3(C)C(CC[C@]4(C)C3CC=C3C5CC(C)(C)CC[C@]5(C(=O)O)CC[C@]34C(=O)O)C2(C)C)[C@H](O)[C@@H](O)[C@@H]1O` (stereo not given in full), which “viability (% of control)” value is on record?
Its value is inactive: 70.7% [at 17.3 µM].

Which viability (% of control) does the source give for `COC(=O)C1=COC(O[C@@H]2O[C@H](CO)[C@@H](O)[C@H](O)[C@H]2O)/C(=C\COC(=O)c2ccc(OC3OC(CO)C(O)C(O)C3O)c(OC)c2)C1CC(=O)OCCc1ccc(O)cc1` (stereo not given in full) here?
The viability (% of control) was inactive: 83.5% [at 9.25 µM].

Which viability (% of control) does the source give for `C=CC(C)(O)CC/C=C(\C)C(=O)O[C@@H]1[C@@H](O)[C@H](OC(C)(C=C)CC/C=C(\C)C(=O)O[C@@H]2O[C@H](CO)[C@@H](O)[C@H](O)[C@H]2O)O[C@H](CO)[C@H]1OC(=O)/C(C)=C/CCC(C)(O)C=C` (stereo not given in full) here?
The viability (% of control) was inactive: 87.6% [at 9.25 µM].

Which Potency does the source give for `COc1cc2c(cc1OC)-c1[nH]nc(Nc3cccc(F)c3)c1C2` here?
Its Potency is active: 0.082 µM.

Which Potency does the source give for `C/C(=C\C(=O)OCCCCCCCCC(=O)O)C[C@@H]1OC[C@H](C[C@@H]2O[C@H]2[C@@H](C)[C@H](C)O)[C@@H](O)[C@H]1O` here?
Its Potency is inconclusive: 3.66 µM [cytotoxic, full curve, poor fit].

With `Cc1ccc2c(Nc3ccc(Cl)cc3)nccc2c1Nc1ncccc1-c1ncnc2nc[nH]c12` as the compound, how does the Potency read?
The Potency was inconclusive: 2.31 µM [cytotoxic, full curve].

For `CC(C)N(CCCNC(=O)Nc1ccc(C(C)(C)C)cc1)C[C@H]1O[C@@H](n2cc(Br)c3c(N)ncnc32)[C@H](O)[C@@H]1O`, which Potency is on record?
Its Potency is inconclusive: 13 µM [cytotoxic, partial curve] and active: 4.68 µM.

With `CNC(=O)[C@@H](c1ccccc1)N1CCc2cc(OC)c(OC)cc2[C@@H]1CCc1ccc(C(F)(F)F)cc1` as the compound, how does the Potency read?
Its Potency is active: 20.6 µM.

For `O=C(O)/C=C\C(=O)O`, which “viability (% of control)” value is on record?
The value was inactive: 70.1%.

For `CCCC(=O)Nc1cccc(NC(=O)c2ccccc2Br)c1`, which “viability (% of control)” value is on record?
The value was inactive: 85%.

For `CC(C)[C@@H](C)/C=C/[C@@H](C)[C@H]1CC[C@H]2C3=CC=C4C[C@@H](O)CC[C@]4(C)C3=CC[C@]12C`, which Potency is on record?
The Potency was active: 16.4 µM.

For `C=C(C)C(=O)OCC(O)CO` (stereo not given), which Potency is on record?
The Potency was inconclusive: 0.0009 µM.

Which Potency does the source give for `C/C=C/C=C/C(O)=C1/C(=O)[C@]2(C)C3/C(=C(O)/C=C/C=C/C)C(=O)C4(C)C1[C@]1(C)O[C@@]4(O)[C@@]3(C)O[C@@]12O` here?
The Potency was inconclusive: 14.2 µM [cytotoxic, single point].

With `C=CCc1ccc(O[C@@H]2O[C@H](CO)[C@@H](O)[C@H](O)[C@H]2O)c(OC)c1` as the compound, how does the “viability (% of control)” value read?
The value was inactive: 81.8%.
